42 sequences from publication PMC7819943, “Rice protein-binding microarrays: a tool to detect cis-acting elements near promoter regions in rice” can be followed below.

Some of the results follow.

This test concerns the target T1, OsWOX13 (Oryza sativa, UniProt Q5QMM3 1-267).
T1 sequence: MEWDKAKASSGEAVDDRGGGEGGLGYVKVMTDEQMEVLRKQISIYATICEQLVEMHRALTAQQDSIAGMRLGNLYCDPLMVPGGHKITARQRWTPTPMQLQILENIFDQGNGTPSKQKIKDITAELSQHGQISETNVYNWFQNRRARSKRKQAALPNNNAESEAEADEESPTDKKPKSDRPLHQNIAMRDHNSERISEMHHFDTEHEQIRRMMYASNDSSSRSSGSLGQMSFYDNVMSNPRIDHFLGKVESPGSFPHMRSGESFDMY
The test can be described thus: protein-binding microarray (RPBM); PBS, 2% BSA, 51.3 ng/ul salmon testes DNA, 50 uM zinc acetate, 200 nM TF, 25 C, 1 h; high values mean tight binding. The note with it: protein: recombinant; tags: N-terminal polyhistidine and DsRed monomer fusion (pET32a); label: CyDye5-dUTP incorporated in the synthesized complementary strand; 3' TTTTT single-stranded linker to array surface; dsDNA, one strand shown. An outline of the steps:
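A custom Agilent array was converted to double-stranded form by primer extension with Cy5-dUTP and blocked with 2% BSA. Protein at 200 nM in PBS with 2% BSA, salmon testes DNA and 50 µM zinc acetate was applied for 1 h at 25 °C, followed by washing. The proteins were polyhistidine–DsRed N-terminal fusions of transcription factors, expressed in E. coli BL21-CodonPlus and Ni–NTA-purified. The binding signal is per-feature fluorescence intensity (arbitrary units) from an Axon 4000B scanner.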
As for “ATTGATTGTGTACGTTTTGCCCTTAATCCTTGTCAGCAGTCGGAGTCACCTAGTGCAG”, the binding signal was 31700 fluorescence intensity (a.u.).

Regarding “CCCAAATCCCGGAAACGTGATTTGTAGGTCCTCAACTTAACGGAGTCACCTAGTGCAG”, the binding signal is 8960 fluorescence intensity (a.u.).

As to “GTATTGATGTTAATGAATCTAGATAGATATATATGTCTAACGGAGTCACCTAGTGCAG”, the binding signal was 10700 fluorescence intensity (a.u.).

Consider “TGCAGATGATAATTGGAGAGCCTTGTTTAGTAATTCACATCGGAGTCACCTAGTGCAG”, for which the binding signal is 17000 fluorescence intensity (a.u.).

As for “ATTATTAATTTAATAGTATTGTAGTGATTCAGAGTACTAGCGGAGTCACCTAGTGCAG”, the binding signal was 19200 fluorescence intensity (a.u.).

“GCTCCAATTGGTGCATAATTACATGGAGATGCAAATAGTACGGAGTCACCTAGTGCAG”: the binding signal was 8440 fluorescence intensity (a.u.).

In the case of “GAATGATGATGATTCATGATGTAAAGGTATCATCTTTATTCGGAGTCACCTAGTGCAG”, the binding signal was 5190 fluorescence intensity (a.u.).

Regarding “GATCATTAGGTCAATCACATAACAGAATGCAGACATTAAGCGGAGTCACCTAGTGCAG”, the binding signal is 20800 fluorescence intensity (a.u.).

With “ATAAGATATATTATTTGGTAATTATTTTAGGTCCGAATTTCGGAGTCACCTAGTGCAG”, the binding signal is 4020 fluorescence intensity (a.u.).

Consider “CATAATTGCACGATCATTGATTTTGGAACATTCTGAGGCTCGGAGTCACCTAGTGCAG”, for which the binding signal is 57100 fluorescence intensity (a.u.).

Turning to “ACAACCTAGAATTACACGATTAATTTAGGACGGATGTAGTCGGAGTCACCTAGTGCAG”, the binding signal is 4080 fluorescence intensity (a.u.).

Regarding “CAGTTAATTTAGGCTATTTTGGCTTCAATCCAAACATAATCGGAGTCACCTAGTGCAG”, the binding signal is 13200 fluorescence intensity (a.u.).

As for “ATAGATTGTCCAGATAGACTATGGGCCTGTTTAAGGGAGCCGGAGTCACCTAGTGCAG”, the binding signal is 22800 fluorescence intensity (a.u.).

Turning to “ATAATAGATAGATAGATAATGCATCAAATAAACACTCATACGGAGTCACCTAGTGCAG”, the binding signal is 27700 fluorescence intensity (a.u.).

On to “ATGAAATGATTTGATTGAAATATTATGAAATGATTTGAGACGGAGTCACCTAGTGCAG”, for which the binding signal was 39500 fluorescence intensity (a.u.).

For “ACCATGATGGCATTAATGAACAATCAGGAATTCAGAATACCGGAGTCACCTAGTGCAG”, the binding signal is 20300 fluorescence intensity (a.u.).

With “TCTATGATTTAAAATCCCATAGGAACCCAATGAGTATGATCGGAGTCACCTAGTGCAG”, the binding signal was 11700 fluorescence intensity (a.u.).

Turning to “GCATGATCAGCGCATAAATTTAATTTCCATCGATCTAGAACGGAGTCACCTAGTGCAG”, the binding signal is 5900 fluorescence intensity (a.u.).

As to “ATATGATTTTAGACGTTCGAGTTTCAAAAGGGCCAGGCCTCGGAGTCACCTAGTGCAG”, the binding signal was 9920 fluorescence intensity (a.u.).

For the sequence “AGGTTAGATTTGATCAAACCAAAAGAAATTTGATTAGAAACGGAGTCACCTAGTGCAG”, the binding signal is 4590 fluorescence intensity (a.u.).

For “ACAGTAAGAAACATCAATTAAGGTGGTTAGGAATTAATCACGGAGTCACCTAGTGCAG”, the binding signal was 7840 fluorescence intensity (a.u.).

Consider “ATTCAATTATATAGTACAGTTACACTAAGTTACTATGCACCGGAGTCACCTAGTGCAG”, for which the binding signal was 13500 fluorescence intensity (a.u.).

“TGTTTTAAAGATTTAATTGGAACGGATTTAATGGTGTCATCGGAGTCACCTAGTGCAG”: the binding signal was 19900 fluorescence intensity (a.u.).

Consider “TTTGATTAGTCAGAAATTTTCTTGTCTTAGACTAGCAAGACGGAGTCACCTAGTGCAG”, for which the binding signal was 24900 fluorescence intensity (a.u.).

Regarding “ATGTATAGTTTGACAAATTAATGGTAAACGTGTGCATTAGCGGAGTCACCTAGTGCAG”, the binding signal is 3340 fluorescence intensity (a.u.).

In the case of “TAAAATTGTGAAAATGTCATTTCCTATAAATTTGATAACCCGGAGTCACCTAGTGCAG”, the binding signal is 8130 fluorescence intensity (a.u.).

“AGATTAGATTTAGATTAGTCCTATGTGTCTCTTGCCGGGTCGGAGTCACCTAGTGCAG”: the binding signal was 19100 fluorescence intensity (a.u.).

For “CTTTAAACAGTTTGAGTGAATTTAGGGGTACATATTTCTGCGGAGTCACCTAGTGCAG”, the binding signal was 6070 fluorescence intensity (a.u.).

Regarding “ACCTTAAATTTGTAGTTGATTTTAGGGTTTTCTCATTGAACGGAGTCACCTAGTGCAG”, the binding signal is 27700 fluorescence intensity (a.u.).

With “AGTTTCATTAAATCTATAATTGAATAAGTTTTCATAATATCGGAGTCACCTAGTGCAG”, the binding signal was 4690 fluorescence intensity (a.u.).

Regarding “CAATCCATTTTAGATTGATTCCGTGTAGATCGATGGAGTTCGGAGTCACCTAGTGCAG”, the binding signal was 25000 fluorescence intensity (a.u.).

As for “CCTAATCAAGACCATCATGATGGTGTCGACAACATGGTCCCGGAGTCACCTAGTGCAG”, the binding signal is 6960 fluorescence intensity (a.u.).

For “TTAAAGTCATAATTGCTATAAATTGAGGTTGCTCCACCCTCGGAGTCACCTAGTGCAG”, the binding signal was 31700 fluorescence intensity (a.u.).

For the sequence “TTTTATAGCTAATCTATTATATATCTATAATGTTAGCTTCCGGAGTCACCTAGTGCAG”, the binding signal is 3200 fluorescence intensity (a.u.).

For “CTTGATTAGTAGTTGGTTGCTCTTCTTCTTGTTCTTGGTTCGGAGTCACCTAGTGCAG”, the binding signal was 64200 fluorescence intensity (a.u.).

With “TCACACTTCTTGTTTGATCAATCACAGAGACAGAGAGAGACGGAGTCACCTAGTGCAG”, the binding signal is 3980 fluorescence intensity (a.u.).

Regarding “GAGCCCGAACTAATTTTAACAGAACGCGTTACGGATTGAACGGAGTCACCTAGTGCAG”, the binding signal is 3190 fluorescence intensity (a.u.).

For the sequence “ATATAATTTCTTACTTTCTCAGATGTGTCCTTATTCATGTCGGAGTCACCTAGTGCAG”, the binding signal is 12200 fluorescence intensity (a.u.).

Take “GTCAATTATCCCATTGCTTAATGTACTTATCATGGTAAGTCGGAGTCACCTAGTGCAG”: the binding signal is 6080 fluorescence intensity (a.u.).

Turning to “TTCGCTAATTATTTGCGGGGCTTCACATGGCAGGGCCGGACGGAGTCACCTAGTGCAG”, the binding signal was 29400 fluorescence intensity (a.u.).

Regarding “GCAGCCTATAAATGTGGTTAGATTGGAATATGGTTTGCAACGGAGTCACCTAGTGCAG”, the binding signal is 11200 fluorescence intensity (a.u.).

On to “TGGCCGGTGATTTACCGTACTAGTGATGTATGCGTGCAAACGGAGTCACCTAGTGCAG”, for which the binding signal was 3650 fluorescence intensity (a.u.).
